From PMC4336329 (PLoS ONE, 2015) come the findings set out here.

Among all 310,000 compounds or so, about 2,200 (0.71%) showed an effect of 50% or more. Effects have a minus sign here. The list shows a part of the results.

The target in the assay is human ether-à-go-go-related gene (hERG) potassium channel (human, UniProt Q12809). Briefly: primary screen, population patch clamp on CHO cells stably expressing hERG.
Chain of human ether-à-go-go-related gene (hERG) potassium channel (Q12809 whole entry, looked up): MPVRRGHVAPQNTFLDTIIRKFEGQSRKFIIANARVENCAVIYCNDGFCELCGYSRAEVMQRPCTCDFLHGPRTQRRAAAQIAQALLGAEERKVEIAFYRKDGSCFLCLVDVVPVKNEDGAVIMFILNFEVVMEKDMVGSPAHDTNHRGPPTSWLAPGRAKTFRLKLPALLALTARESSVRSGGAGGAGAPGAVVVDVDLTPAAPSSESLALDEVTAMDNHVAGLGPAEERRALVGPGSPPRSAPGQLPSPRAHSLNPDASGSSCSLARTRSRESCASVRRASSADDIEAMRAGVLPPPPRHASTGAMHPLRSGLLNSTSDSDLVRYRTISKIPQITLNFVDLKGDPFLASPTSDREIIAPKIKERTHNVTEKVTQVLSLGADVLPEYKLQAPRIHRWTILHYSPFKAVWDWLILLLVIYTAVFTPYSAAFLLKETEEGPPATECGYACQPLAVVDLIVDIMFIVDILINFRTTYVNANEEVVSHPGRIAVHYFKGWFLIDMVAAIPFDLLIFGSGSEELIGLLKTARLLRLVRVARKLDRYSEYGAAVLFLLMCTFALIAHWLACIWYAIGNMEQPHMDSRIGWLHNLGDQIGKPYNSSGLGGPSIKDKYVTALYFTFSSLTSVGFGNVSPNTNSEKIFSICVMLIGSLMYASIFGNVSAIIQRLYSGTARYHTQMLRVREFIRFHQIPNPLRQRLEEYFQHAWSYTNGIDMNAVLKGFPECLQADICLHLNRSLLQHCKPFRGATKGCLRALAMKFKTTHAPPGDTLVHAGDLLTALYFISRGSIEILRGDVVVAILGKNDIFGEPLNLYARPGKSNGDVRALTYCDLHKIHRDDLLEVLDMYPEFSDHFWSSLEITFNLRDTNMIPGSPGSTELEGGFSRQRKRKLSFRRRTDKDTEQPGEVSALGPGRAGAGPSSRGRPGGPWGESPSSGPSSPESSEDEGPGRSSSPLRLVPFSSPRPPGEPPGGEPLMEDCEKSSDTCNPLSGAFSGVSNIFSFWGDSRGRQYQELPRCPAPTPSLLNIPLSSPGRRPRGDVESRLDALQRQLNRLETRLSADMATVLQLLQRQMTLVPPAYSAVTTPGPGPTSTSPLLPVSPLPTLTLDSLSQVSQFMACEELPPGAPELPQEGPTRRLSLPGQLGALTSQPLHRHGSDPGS
Take `C=CCN(C)NC(=O)Nc1ccccc1`: the “hERG current change (%, negative = inhibition) at 1uM” value is listed as 10.6%. The result for `CCN(CC)C(=O)C1CCCN(Cc2cccc(Oc3ccccc3)c2)C1` (stereo not drawn) reads 1.85%; that for `CCOC(=O)C1CCCN(C(=O)Cn2sc3nc(C)cc(C)c3c2=O)C1` (stereo not drawn), 11.5%. The result for `COc1ccccc1NC(=O)NCCCN1CCN(c2cccc(Cl)c2)CC1` reads -29%. The result for `COc1ccc(-c2oc(=O)c3cc(OC)c(OC)cc3c2C(F)(F)F)cc1` reads 15.6%; that for `C/C(=N\NC(=O)c1cccc(S(=O)(=O)N2CCCC2)c1)c1ccccc1F`, 8.6%; that for `Cc1ccc(S(=O)(=O)N2CCN(C(=O)COC(=O)/C=C/c3ccccc3)CC2)c(C)c1`, 3.37%.

As to `O=C(NCc1ccco1)c1c(F)cccc1Cl`, the “hERG current change (%, negative = inhibition) at 1uM” value amounted to 17.3%. The result for `O=C(Nc1ccc(NC(=S)NC(=O)c2ccccc2Cl)cc1)c1cccc(Cl)c1` reads 13.9%. The result for `CC1CN(C(=O)c2cc3c(s2)CCC3)CC(C)O1` (stereo not drawn) reads 0.87%; that for `Nc1nc2n(n1)C(c1cccc(Br)c1)CC(c1ccccc1)N2` (stereo not drawn), -11.7%. The result for `O=C(O)C1CC(O)CN1c1nc(Cl)ccc1[N+](=O)[O-]` (stereo not drawn) reads 3.79%; that for `CC(C)CCOc1ccc(C2(C)NC(=O)NC2=O)cc1` (stereo not drawn), 3.62%. Consider `O=C(O)C(=O)O.O=C(c1ccccc1)c1ccc(OCC(O)CNCc2ccc(Cl)cc2)cc1` (stereo not drawn), for which the “hERG current change (%, negative = inhibition) at 1uM” value came out at 0.916%. The result for `COc1ccc(C(C)=O)cc1CC(C(=O)c1ccccc1)N(C)C.Cl` (stereo not drawn) reads 1%. The result for `CC(=O)N1CCN(C(=S)c2ccc(N(C)C)cc2)CC1` reads 7.9%; that for `Cc1ccc(NC(=S)NNC(=O)c2nn(C)cc2Cl)cc1`, 2.59%. `O=C1NC(c2cc3c(cc2Cl)OCO3)Oc2ccccc21` (stereo not drawn): the “hERG current change (%, negative = inhibition) at 1uM” value is -1.94%.

Take `Cc1ccc2nc(SCc3nc4ccccc4c(=O)[nH]3)[nH]c2c1`: the “hERG current change (%, negative = inhibition) at 1uM” value turned out to be 9.36%. The result for `Cc1ccc(S(=O)(=O)N(C)C)cc1NC(=O)c1cc(=O)[nH]c2ccccc12` reads 15.4%. For `CCc1nn(CCCC(=O)NCc2ccco2)c(=O)c2cc3occc3n12`, the “hERG current change (%, negative = inhibition) at 1uM” value is listed as -3.38%. The result for `Cc1cccc(N2CCN(CC(=O)Nc3ccc(-n4cnnn4)cc3)CC2)c1C` reads 12.5%. Consider `COc1ccc(/C=N/NC(=O)c2nc(-c3ccccc3)cc(-c3ccccc3)n2)cc1OC`, for which the “hERG current change (%, negative = inhibition) at 1uM” value was found to be 1.66%. As to `COc1ccc(C(=O)CSc2nc3ncccc3[nH]2)cc1OC`, the “hERG current change (%, negative = inhibition) at 1uM” value turned out to be 13.6%.

Consider `CC(C)(CNC(=O)c1ccc(S(=O)(=O)Nc2ccc(Cl)cc2)cc1)N1CCOCC1`, for which the “hERG current change (%, negative = inhibition) at 1uM” value is listed as -5.89%. The result for `COc1ccc(C(=O)NC(C)c2nc3ccccc3n2C)cc1OC` (stereo not drawn) reads -7.35%; that for `O=C(OCC#CCSc1nc2ccccc2s1)c1ccco1`, -2.51%; that for `CCN(CC(=O)NCc1ccc(Cl)cc1)C(=O)CSc1ccc(Br)cc1`, -48.6%. The result for `CS(=O)(=O)N1N=C(c2cccs2)CC1c1ccccc1F` (stereo not drawn) reads 1.33%. Turning to `COc1ccc(-c2cc(C)no2)cc1S(=O)(=O)N(C)Cc1ccco1`, the “hERG current change (%, negative = inhibition) at 1uM” value is 14.3%. The result for `Cc1nn(CC(=O)NCc2ccc(Cl)cc2)c(C)c1[N+](=O)[O-]` reads 2.31%.

As for `CCCCn1nc2cc(C(=O)NCc3cc(C(F)(F)F)cc(C(F)(F)F)c3)ccc2c1OCC`, the “hERG current change (%, negative = inhibition) at 1uM” value came to 15.8%.

On to `CSc1nnc(CCCCCNC(=O)OC(C)(C)C)o1`, for which the “hERG current change (%, negative = inhibition) at 1uM” value is recorded as 14.1%. Consider `O=C(N/C=C\c1ccccc1)NCc1ccc(Cl)cc1`, for which the “hERG current change (%, negative = inhibition) at 1uM” value is on record as 10.6%. The result for `C/C(=N\NC(=O)C(c1ccccc1)c1ccccc1)c1ccc(O)cc1` reads 10.1%; that for `Cc1ccc(C(C2=C(O)CC(C)(C)CC2=O)C2C(=O)CC(C)(C)CC2=O)s1` (stereo not drawn), 8.25%. The result for `COc1ccc(CN2CCSCC2)cc1C` reads 5.52%. Consider `O=C(CCCN1C(=O)S/C(=C\c2ccccc2)C1=O)NNC(=O)c1ccccc1O`, for which the “hERG current change (%, negative = inhibition) at 1uM” value turned out to be 12.6%.

As to `CCN(CC)CCn1c(NCc2ccccn2)nc2ccccc21.Cl`, the “hERG current change (%, negative = inhibition) at 1uM” value is reported as -1.1%. For the compound `COc1ccccc1OCC(=O)NNc1c2ccccc2nc2ccccc12`, the “hERG current change (%, negative = inhibition) at 1uM” value turned out to be 12.8%. The result for `N#CCc1nn(-c2ccc(Cl)cc2)c(N)c1C#N` reads 9.26%. The result for `CCOC(=O)c1[nH]c2cc(OC)c(OC)cc2c1NC(=O)CN1CCN(c2ccc(OC)cc2)C(C)C1` (stereo not drawn) reads 7.05%. The result for `COC(=O)CCC(=O)OC1(C)C(=O)C2=CN(c3ccccc3)C(c3ccc(OC)cc3)=CC2=C(Br)C1=O` (stereo not drawn) reads 3.11%; that for `O=C(CCNS(=O)(=O)c1cccs1)N1CCN(c2cccc(Cl)c2)CC1`, -0.0599%. On to `CC1(C)Cc2c(C#N)c(SCC(=O)O)nc(N3CCOCC3)c2CO1`, for which the “hERG current change (%, negative = inhibition) at 1uM” value came to 17.9%. The result for `COc1ccc(CNC(=O)COc2cc3c(c4oc(=O)cc(C)c24)CCC(C)(C)O3)cc1` reads 12.6%; that for `COc1ccc(N2C(=O)CC(c3ccccc3)CC2=O)cc1`, 10.5%. The result for `COc1ccc(CCNC(=O)C2C3CCC(C3)C2C(=O)O)cc1OC` (stereo not drawn) reads 14.5%; that for `O=C(NCc1ccccc1)c1ccc2c(c1)OCCO2`, 5.28%; that for `Cn1c(=O)c2c(nc(Oc3ccc(-c4ccccc4)cc3)n2C)n(C)c1=O`, 9.66%.

On to `CCCC(=O)NC(=S)Nc1cccc(NC(=O)c2ccccc2)c1`, for which the “hERG current change (%, negative = inhibition) at 1uM” value was determined as 5.48%. The result for `CC(=O)Nc1ccc2[nH]c3ccccc3c2c1` reads 3.08%; that for `COc1cc(Cl)ccc1OCc1cc(C(=O)NC2CCc3ccccc32)no1` (stereo not drawn), 8.95%; that for `CS(=O)(=O)N(CC(=O)NCCSC1CCCCC1)c1cccc(F)c1`, 17.6%. The result for `O=c1c2ccccc2nc2n1CCC2` reads 9.08%. The result for `Cc1onc(-c2ccccc2)c1C(=O)c1ccccc1` reads 12.2%. For the compound `O=S1(=O)CCOCCCN1Cc1cccc(F)c1`, the “hERG current change (%, negative = inhibition) at 1uM” value was 11%.
